Among the data in article PMC12820563 are binding signal (RPM ratio (pull-down/input)) values, retold here.

The list shows a part of the results. The list includes weakly bound sequences.

This experiment deals with T1, MBP-FoxP3dN (UniProt Q99JB6).
T1 sequence: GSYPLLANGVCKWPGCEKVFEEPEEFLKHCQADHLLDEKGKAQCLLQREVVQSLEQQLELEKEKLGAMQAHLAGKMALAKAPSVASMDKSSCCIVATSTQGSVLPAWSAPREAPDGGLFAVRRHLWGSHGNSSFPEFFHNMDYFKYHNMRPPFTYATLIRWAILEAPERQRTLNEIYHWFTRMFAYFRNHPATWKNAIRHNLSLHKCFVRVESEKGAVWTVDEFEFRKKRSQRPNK
The experiment in a line: PD-seq (MBP pull-down with sequencing). The settings on record: 20 mM Tris-HCl pH 7.5, 100 mM NaCl, 1.5 mM MgCl2, 0.4 uM protein, 0.1 uM dsDNA library, 30 min, room temperature, amylose pull-down; high values mean tight binding; double strand, one strand shown.
Take “GATGATTGTTCTCCCAGCTGATGAATTGACCTGCTCGAGTAAACAAATTTTCCTAATCTTTCTGTTCAAGCGCCATCTAC”: the binding signal (RPM ratio (pull-down/input)) turned out to be 0.266. In the case of “GATGATTGTTCTCCCAGCTGATGAATTGGTCCAATCGAGTAAACAAATTTTCCTAATCTTTCTGTTCAAGCGCCATCTAC” it was 0.286; in that of “GATGATTGTTCTCCCAGCTGATGAATTTATCCCGTCGAGTAAACAAATTTTCCTAATCTTTCTGTTCAAGCGCCATCTAC”, 0.631. Under “GATGATTGTTCTCCCAGCTGATGAATTTGGGGTATCGAGTAAACAAATTTTCCTAATCTTTCTGTTCAAGCGCCATCTAC” stands 0.984; under “GATGATTGTTCTCCCAGCTGATGAATTCAATATTTCGAGTAAACAAATTTTCCTAATCTTTCTGTTCAAGCGCCATCTAC”, 1.46.

On to “GATGATTGTTCTCCCAGCTGATGAATTTCCGAGCTCGAGTAAACAAATTTTCCTAATCTTTCTGTTCAAGCGCCATCTAC”, for which the binding signal (RPM ratio (pull-down/input)) turned out to be 0.209. Under “GATGATTGTTCTCCCAGCTGATGAATTTTGGTATTCGAGTAAACAAATTTTCCTAATCTTTCTGTTCAAGCGCCATCTAC” stands 2.09; under “GATGATTGTTCTCCCAGCTGATGAATTCCTATCATCGAGTAAACAAATTTTCCTAATCTTTCTGTTCAAGCGCCATCTAC”, 0.429; under “GATGATTGTTCTCCCAGCTGATGAATTGTTTACCTCGAGTAAACAAATTTTCCTAATCTTTCTGTTCAAGCGCCATCTAC”, 7.12. In the case of “GATGATTGTTCTCCCAGCTGATGAATTTCTCCGTTCGAGTAAACAAATTTTCCTAATCTTTCTGTTCAAGCGCCATCTAC” it was 0.228. In the case of “GATGATTGTTCTCCCAGCTGATGAATTGATCATCTCGAGTAAACAAATTTTCCTAATCTTTCTGTTCAAGCGCCATCTAC” it was 0.761. Turning to “GATGATTGTTCTCCCAGCTGATGAATTCCGGCCTTCGAGTAAACAAATTTTCCTAATCTTTCTGTTCAAGCGCCATCTAC”, the binding signal (RPM ratio (pull-down/input)) is 1.34. Under “GATGATTGTTCTCCCAGCTGATGAATTGACATGCTCGAGTAAACAAATTTTCCTAATCTTTCTGTTCAAGCGCCATCTAC” stands 0.584. In the case of “GATGATTGTTCTCCCAGCTGATGAATTTGCCCCATCGAGTAAACAAATTTTCCTAATCTTTCTGTTCAAGCGCCATCTAC” it was 0.477; in that of “GATGATTGTTCTCCCAGCTGATGAATTTTGGGAATCGAGTAAACAAATTTTCCTAATCTTTCTGTTCAAGCGCCATCTAC”, 0.264. In the case of “GATGATTGTTCTCCCAGCTGATGAATTTAATTAATCGAGTAAACAAATTTTCCTAATCTTTCTGTTCAAGCGCCATCTAC” it was 0.514; in that of “GATGATTGTTCTCCCAGCTGATGAATTCATTGAGTCGAGTAAACAAATTTTCCTAATCTTTCTGTTCAAGCGCCATCTAC”, 0.374; in that of “GATGATTGTTCTCCCAGCTGATGAATTTAGCAGTTCGAGTAAACAAATTTTCCTAATCTTTCTGTTCAAGCGCCATCTAC”, 1.27.

For the sequence “GATGATTGTTCTCCCAGCTGATGAATTACTCATTTCGAGTAAACAAATTTTCCTAATCTTTCTGTTCAAGCGCCATCTAC”, the binding signal (RPM ratio (pull-down/input)) amounted to 0.457. Under “GATGATTGTTCTCCCAGCTGATGAATTTAGCGACTCGAGTAAACAAATTTTCCTAATCTTTCTGTTCAAGCGCCATCTAC” stands 2.3.

As for “GATGATTGTTCTCCCAGCTGATGAATTAAATGGTTCGAGTAAACAAATTTTCCTAATCTTTCTGTTCAAGCGCCATCTAC”, the binding signal (RPM ratio (pull-down/input)) amounted to 0.781. Turning to “GATGATTGTTCTCCCAGCTGATGAATTGGTGCCCTCGAGTAAACAAATTTTCCTAATCTTTCTGTTCAAGCGCCATCTAC”, the binding signal (RPM ratio (pull-down/input)) came to 0.611. Consider “GATGATTGTTCTCCCAGCTGATGAATTTTTGACATCGAGTAAACAAATTTTCCTAATCTTTCTGTTCAAGCGCCATCTAC”, for which the binding signal (RPM ratio (pull-down/input)) came to 0.524. Under “GATGATTGTTCTCCCAGCTGATGAATTTTGTTGTTCGAGTAAACAAATTTTCCTAATCTTTCTGTTCAAGCGCCATCTAC” stands 8.13; under “GATGATTGTTCTCCCAGCTGATGAATTACTGAGCTCGAGTAAACAAATTTTCCTAATCTTTCTGTTCAAGCGCCATCTAC”, 0.258; under “GATGATTGTTCTCCCAGCTGATGAATTTTAACGGTCGAGTAAACAAATTTTCCTAATCTTTCTGTTCAAGCGCCATCTAC”, 0.257. Consider “GATGATTGTTCTCCCAGCTGATGAATTCCAAGTCTCGAGTAAACAAATTTTCCTAATCTTTCTGTTCAAGCGCCATCTAC”, for which the binding signal (RPM ratio (pull-down/input)) was determined as 0.299. Under “GATGATTGTTCTCCCAGCTGATGAATTCGCTGGATCGAGTAAACAAATTTTCCTAATCTTTCTGTTCAAGCGCCATCTAC” stands 0.251. In the case of “GATGATTGTTCTCCCAGCTGATGAATTCGGCTGTTCGAGTAAACAAATTTTCCTAATCTTTCTGTTCAAGCGCCATCTAC” it was 1; in that of “GATGATTGTTCTCCCAGCTGATGAATTCGCGCGGTCGAGTAAACAAATTTTCCTAATCTTTCTGTTCAAGCGCCATCTAC”, 0.455. Regarding “GATGATTGTTCTCCCAGCTGATGAATTGTGGAGATCGAGTAAACAAATTTTCCTAATCTTTCTGTTCAAGCGCCATCTAC”, the binding signal (RPM ratio (pull-down/input)) is 0.339. In the case of “GATGATTGTTCTCCCAGCTGATGAATTCGGAACGTCGAGTAAACAAATTTTCCTAATCTTTCTGTTCAAGCGCCATCTAC” it was 0.297.

In the case of “GATGATTGTTCTCCCAGCTGATGAATTACGGGGTTCGAGTAAACAAATTTTCCTAATCTTTCTGTTCAAGCGCCATCTAC”, the binding signal (RPM ratio (pull-down/input)) was 0.472. In the case of “GATGATTGTTCTCCCAGCTGATGAATTATGCTGCTCGAGTAAACAAATTTTCCTAATCTTTCTGTTCAAGCGCCATCTAC” it was 1.27; in that of “GATGATTGTTCTCCCAGCTGATGAATTTACGGTCTCGAGTAAACAAATTTTCCTAATCTTTCTGTTCAAGCGCCATCTAC”, 0.565.

As for “GATGATTGTTCTCCCAGCTGATGAATTCTTCGCCTCGAGTAAACAAATTTTCCTAATCTTTCTGTTCAAGCGCCATCTAC”, the binding signal (RPM ratio (pull-down/input)) turned out to be 0.371. As to “GATGATTGTTCTCCCAGCTGATGAATTCCGATCTTCGAGTAAACAAATTTTCCTAATCTTTCTGTTCAAGCGCCATCTAC”, the binding signal (RPM ratio (pull-down/input)) turned out to be 0.34. Under “GATGATTGTTCTCCCAGCTGATGAATTGACCGCCTCGAGTAAACAAATTTTCCTAATCTTTCTGTTCAAGCGCCATCTAC” stands 0.524; under “GATGATTGTTCTCCCAGCTGATGAATTCAATCTATCGAGTAAACAAATTTTCCTAATCTTTCTGTTCAAGCGCCATCTAC”, 0.37.

Take “GATGATTGTTCTCCCAGCTGATGAATTCAGGTTCTCGAGTAAACAAATTTTCCTAATCTTTCTGTTCAAGCGCCATCTAC”: the binding signal (RPM ratio (pull-down/input)) worked out at 0.671. In the case of “GATGATTGTTCTCCCAGCTGATGAATTAATAGAATCGAGTAAACAAATTTTCCTAATCTTTCTGTTCAAGCGCCATCTAC” it was 0.228; in that of “GATGATTGTTCTCCCAGCTGATGAATTCGGCTACTCGAGTAAACAAATTTTCCTAATCTTTCTGTTCAAGCGCCATCTAC”, 1.52; in that of “GATGATTGTTCTCCCAGCTGATGAATTTGCCACCTCGAGTAAACAAATTTTCCTAATCTTTCTGTTCAAGCGCCATCTAC”, 1.98. Under “GATGATTGTTCTCCCAGCTGATGAATTCGCTACTTCGAGTAAACAAATTTTCCTAATCTTTCTGTTCAAGCGCCATCTAC” stands 0.488; under “GATGATTGTTCTCCCAGCTGATGAATTCTTTAGTTCGAGTAAACAAATTTTCCTAATCTTTCTGTTCAAGCGCCATCTAC”, 0.297; under “GATGATTGTTCTCCCAGCTGATGAATTGCGATTTTCGAGTAAACAAATTTTCCTAATCTTTCTGTTCAAGCGCCATCTAC”, 1.44. In the case of “GATGATTGTTCTCCCAGCTGATGAATTTGCGGAGTCGAGTAAACAAATTTTCCTAATCTTTCTGTTCAAGCGCCATCTAC”, the binding signal (RPM ratio (pull-down/input)) worked out at 0.401. In the case of “GATGATTGTTCTCCCAGCTGATGAATTGCGAAAGTCGAGTAAACAAATTTTCCTAATCTTTCTGTTCAAGCGCCATCTAC” it was 0.462. In the case of “GATGATTGTTCTCCCAGCTGATGAATTTTCCACATCGAGTAAACAAATTTTCCTAATCTTTCTGTTCAAGCGCCATCTAC” it was 0.34.

For the sequence “GATGATTGTTCTCCCAGCTGATGAATTTCAGTAATCGAGTAAACAAATTTTCCTAATCTTTCTGTTCAAGCGCCATCTAC”, the binding signal (RPM ratio (pull-down/input)) turned out to be 0.45.

As for “GATGATTGTTCTCCCAGCTGATGAATTGTGAGTCTCGAGTAAACAAATTTTCCTAATCTTTCTGTTCAAGCGCCATCTAC”, the binding signal (RPM ratio (pull-down/input)) worked out at 2.55. In the case of “GATGATTGTTCTCCCAGCTGATGAATTAGAGTAGTCGAGTAAACAAATTTTCCTAATCTTTCTGTTCAAGCGCCATCTAC” it was 0.423. In the case of “GATGATTGTTCTCCCAGCTGATGAATTAGGGGACTCGAGTAAACAAATTTTCCTAATCTTTCTGTTCAAGCGCCATCTAC” it was 0.396; in that of “GATGATTGTTCTCCCAGCTGATGAATTCTAAAACTCGAGTAAACAAATTTTCCTAATCTTTCTGTTCAAGCGCCATCTAC”, 0.213; in that of “GATGATTGTTCTCCCAGCTGATGAATTGCGGAAGTCGAGTAAACAAATTTTCCTAATCTTTCTGTTCAAGCGCCATCTAC”, 0.427. Under “GATGATTGTTCTCCCAGCTGATGAATTTGCTCTCTCGAGTAAACAAATTTTCCTAATCTTTCTGTTCAAGCGCCATCTAC” stands 0.488; under “GATGATTGTTCTCCCAGCTGATGAATTTCGTTTTTCGAGTAAACAAATTTTCCTAATCTTTCTGTTCAAGCGCCATCTAC”, 1.82. For the sequence “GATGATTGTTCTCCCAGCTGATGAATTCAATAATTCGAGTAAACAAATTTTCCTAATCTTTCTGTTCAAGCGCCATCTAC”, the binding signal (RPM ratio (pull-down/input)) is 0.372. In the case of “GATGATTGTTCTCCCAGCTGATGAATTATGTTACTCGAGTAAACAAATTTTCCTAATCTTTCTGTTCAAGCGCCATCTAC” it was 3.2. In the case of “GATGATTGTTCTCCCAGCTGATGAATTCGTCAACTCGAGTAAACAAATTTTCCTAATCTTTCTGTTCAAGCGCCATCTAC” it was 0.538; in that of “GATGATTGTTCTCCCAGCTGATGAATTTTGTAGCTCGAGTAAACAAATTTTCCTAATCTTTCTGTTCAAGCGCCATCTAC”, 2.81. Under “GATGATTGTTCTCCCAGCTGATGAATTCATGAAGTCGAGTAAACAAATTTTCCTAATCTTTCTGTTCAAGCGCCATCTAC” stands 0.221.

In the case of “GATGATTGTTCTCCCAGCTGATGAATTTCTTAAGTCGAGTAAACAAATTTTCCTAATCTTTCTGTTCAAGCGCCATCTAC”, the binding signal (RPM ratio (pull-down/input)) was determined as 0.196.
